Experimental data from PMC4336329 (PLoS ONE, 2015).
In all, about 310,000 compounds went through this assay and about 14,000 (4.5%) showed an effect of 50% or more. The effect is printed as a negative number. The list shows a part of the results.

Each compound was assayed against human ether-à-go-go-related gene (hERG) potassium channel (human, UniProt Q12809) (assay: primary screen, population patch clamp on CHO cells stably expressing hERG).
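Also: peak tail current of the secondary pulse compared with the same well before compound.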

human ether-à-go-go-related gene (hERG) potassium channel, sequence (Q12809 whole entry, looked up): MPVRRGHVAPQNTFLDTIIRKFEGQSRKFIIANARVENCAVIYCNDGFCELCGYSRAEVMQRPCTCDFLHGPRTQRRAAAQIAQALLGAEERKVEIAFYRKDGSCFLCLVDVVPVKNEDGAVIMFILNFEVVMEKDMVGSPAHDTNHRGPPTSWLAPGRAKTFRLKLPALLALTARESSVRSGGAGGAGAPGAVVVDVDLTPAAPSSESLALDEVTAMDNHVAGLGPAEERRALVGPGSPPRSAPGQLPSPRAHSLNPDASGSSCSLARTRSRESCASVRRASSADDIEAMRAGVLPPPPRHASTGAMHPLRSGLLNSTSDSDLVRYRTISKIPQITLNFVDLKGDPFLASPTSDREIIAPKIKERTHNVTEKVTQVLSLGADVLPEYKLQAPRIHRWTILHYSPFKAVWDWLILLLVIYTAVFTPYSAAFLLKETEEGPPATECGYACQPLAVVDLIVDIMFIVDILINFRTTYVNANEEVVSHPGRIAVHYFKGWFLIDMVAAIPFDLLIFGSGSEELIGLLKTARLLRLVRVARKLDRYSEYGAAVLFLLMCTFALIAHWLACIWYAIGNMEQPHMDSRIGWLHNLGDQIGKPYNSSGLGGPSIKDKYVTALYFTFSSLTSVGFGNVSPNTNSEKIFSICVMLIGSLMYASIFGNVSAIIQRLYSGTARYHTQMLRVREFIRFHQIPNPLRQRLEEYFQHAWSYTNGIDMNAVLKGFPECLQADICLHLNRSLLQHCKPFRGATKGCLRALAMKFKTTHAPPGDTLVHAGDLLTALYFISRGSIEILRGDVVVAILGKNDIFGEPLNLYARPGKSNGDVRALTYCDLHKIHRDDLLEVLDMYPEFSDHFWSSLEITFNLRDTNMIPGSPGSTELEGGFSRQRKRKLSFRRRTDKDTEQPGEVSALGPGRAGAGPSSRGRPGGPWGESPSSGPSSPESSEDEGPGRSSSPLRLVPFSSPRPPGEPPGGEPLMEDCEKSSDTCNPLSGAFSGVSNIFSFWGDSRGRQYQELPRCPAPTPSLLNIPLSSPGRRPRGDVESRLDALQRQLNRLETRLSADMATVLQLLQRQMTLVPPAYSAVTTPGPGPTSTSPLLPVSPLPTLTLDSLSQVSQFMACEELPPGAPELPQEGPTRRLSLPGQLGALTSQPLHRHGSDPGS

Structure (SMILES) | hERG current change (%, negative = inhibition) at 10uM [%]
CCCC(=O)N1CCN(Cc2ccc3c(c2)OCO3)CC1 | -3.83
CC(C)(C)c1cc(CCC(=O)N2CCNCC2)c(C(C)(C)C)cc1O | 5.52
O=C(N/N=C/c1ccco1)c1ccccc1OCc1ccc(Br)cc1 | -8.69
COc1ccc(S(=O)(=O)NCC2CCCN(Cc3cccnc3)C2)cc1 (stereo not drawn) | -47.7
O=C(CSc1ncn[nH]1)NCc1ccc2c(c1)OCO2 | 7.7
Cc1ccc(Cc2nnc(SCC(=O)Nc3ccccc3Cl)[nH]c2=O)cc1 | -14.7
CC(=O)Nc1ccc(N/C(=N\S(=O)(=O)c2ccccc2)c2ccccc2)cc1 | 6.81
COc1ccc(OC)c(NC(=O)CNC(=O)c2cccs2)c1 | 4.75
CCCCN(C(=O)CC1CCCC1)c1c(N)n(CC(C)C)c(=O)[nH]c1=O | -30.2
O=C(O)c1cc(-c2ccc(Br)s2)nc2ccccc12 | 29.2
CCN(CC)c1ccc(NC(=O)CCc2nnc3ccc(N4CCCCC4)nn23)c(C)c1 | -12.8
COc1ccccc1N1CCN(CC(C)N(C(=O)C2CCCCC2)c2ccccn2)CC1 (stereo not drawn) | -67.9
Cc1cc(NC(=O)C2CC(=O)N(c3ccc(F)cc3)C2)no1 (stereo not drawn) | -6.47
O=C(CCc1nnc(C2CCCCC2)o1)NCc1cccc(-n2cccn2)c1 | 1.8
CN(C)S(=O)(=O)c1cccc(NC(=S)NCc2ccco2)c1 | 19.4
COC(=O)C1CSC(C(=O)OC)N1C(=O)Nc1c(C)cccc1C (stereo not drawn) | 3.69
COc1cccc(OC)c1C(=O)OCC(=O)NCc1ccco1 | 4.7
CC(C)[C@H](NC(=O)[C@@H]1Cc2ccccc2CN1)C(=O)Nc1ccc2c(c1)OCCO2 | -30.2
CCN(CC)CC(=O)Nc1sc(C)cc1C(=O)c1ccc(C)cc1 | -2.07

Structure (SMILES) | hERG current change (%, negative = inhibition) at 10uM [%]
O=C(CNC(=O)Cc1cccc2ccccc12)NCc1ccc(F)cc1 | 2.87
CCOC(=O)C1(CCCc2ccccc2)CCN(C(=O)CN2CCOC2=O)CC1 | 6.35
Oc1oc(-c2ccccc2)nc1/C=N/c1ccccn1 | 8.56
COc1ccc(S(=O)(=O)NC2CC(=O)N(c3ccc(C)c(C)c3)C2)cc1C (stereo not drawn) | -9.62
COc1ccc(Cl)cc1C(=O)C1CCCN(Cc2cnc(N3CCOCC3)s2)C1 (stereo not drawn) | -57.6
CCCS(=O)(=O)N1CCN(C(=O)CCC2CCCC2)CC1 | -5.88
COc1cc2c(cc1OC)-c1nnc(-c3cccs3)n1C1(CCCC1)C2 | -16.8
NC1=NC(=O)C(Cc2ccccc2)S1 (stereo not drawn) | 2.01
CCn1cc(/C=C(\NC(=O)c2ccccc2F)C(=O)N2CCCC2)c2ccccc21 | -16.2
CCc1nnc(NC(=O)C2COc3ccccc3O2)s1 (stereo not drawn) | -0.739
CC1(C)C(C(=O)NN2C(=O)c3ccccc3C2=O)C1(C)C | 12.2
C=CCn1c(SCC(N)=O)nc2scc(-c3ccc(C)o3)c2c1=O | -3.83
COc1ccc(/C=C\c2nc(O)c([N+](=O)[O-])c(=O)[nH]2)cc1O | 5.88
CCOC(=O)c1c(S(=O)(=O)NCC(=O)NCc2ccccc2Cl)c(C)n(C)c1C | -47.4
CC12CC(NC(=O)N1Cc1ccccc1)c1ccccc1O2 (stereo not drawn) | -6.03
O=C(c1cccc(S(=O)(=O)N2CCCCC2)c1)N1CCOCC1 | 10.2
CCCCCCNC(=O)c1cccc(-c2ccc(C)c3ccccc23)n1 | 0.747
Cc1nc(NC(=O)c2ccco2)sc1-c1csc(Nc2ccc(Cl)cc2)n1 | 14.1
Cc1c(CNC2CCCC(C)C2C)c(C(=O)O)c(C)n1Cc1ccccc1 (stereo not drawn) | -3.24

Structure (SMILES) | hERG current change (%, negative = inhibition) at 10uM [%]
Cc1cccc(NC(=S)N/N=C/c2ccc([N+](=O)[O-])s2)c1 | 8.4
CS(=O)(=O)N(Cc1ccco1)CC(O)Cn1cc(C=O)c2ccccc21 (stereo not drawn) | 0.402
COCCOC(=O)c1[nH]c2c(c1C)C(=O)CC(c1ccco1)C2 (stereo not drawn) | -5.52
CC1CCN(CCC(=O)Nc2ccc(F)c(F)c2)CC1 | -26.6
Cc1ccc(S(=O)(=O)NCC(=O)OCC(=O)N(C)C2CCS(=O)(=O)C2)cc1 (stereo not drawn) | 8.47
CC(Oc1ccc(C(=O)NC2CCCCC2)cc1)C(=O)O (stereo not drawn) | 12.3
O=C1c2ccccc2C(=O)N1CCCCSc1nnc2ccccn12 | -22.7
NC(=O)c1ccc(-n2nnnc2SCC(=O)Nc2ccc(F)cc2)cc1 | 21.4
COC(=O)c1cc(C(=O)OC)cc(N2C(=O)CC(Sc3nc(C)cc(C)n3)C2=O)c1 (stereo not drawn) | -13.6
CC1CCCN(S(=O)(=O)c2ccc([N+](=O)[O-])cc2)C1 (stereo not drawn) | 7.9
COC(=O)C1=C(c2ccc(F)cc2F)C[C@@H]2CC[C@H]1N2C(=O)NCc1ccco1 | 2.23
CC(c1ccccc1)N(NC(=O)C(O)(c1ccccc1)c1ccccc1)C(=O)c1ccccc1 (stereo not drawn) | -4.24
O=C(CSC1=NC(=O)C(c2ccccc2)C(=O)N1)Nc1ccccc1Cl (stereo not drawn) | 12.7
CC(=O)Nc1c(NCC(C)C)c2ccccc2oc1=O | 16.7
CC(C)NC(=NCc1ccc(Cl)cc1Cl)Nc1ccccc1 | -53
O=C(c1ccccc1Br)N1N=C(c2ccccc2)CC1c1ccccc1F (stereo not drawn) | 15.7
O=c1[nH]c(=S)[nH]c(O)c1N=Nc1ccc2c(c1)OCCO2 | 18.2
CC(C)(C)c1ccc(NC(=S)NCCc2ccccn2)cc1 | 5.62
O=C(/C=C/c1cc([N+](=O)[O-])ccc1OC(F)F)Nc1cccc([N+](=O)[O-])c1 | 1.95
